# Reference: ChEMBL document CHEMBL4888484, “Replenishing the malaria drug discovery pipeline: Screening and hit evaluation of the MMV Hit Generation Library 1 (HGL1) against asexual blood stage Plasmodium falciparum ,using a nano luciferase reporter read-out” (2022)
# Hit rate of the full screen: of about 4,800 compounds, about 410 (8.5%) showed an effect of 50% or more. The list shows a part of the results.
# Tested on: Plasmodium falciparum
# Experiment: Confirmatory screen in NF54 pLDH assay, in single point, at 2uM, 72h
# Assay type: functional, Erythrocyte
# Conditions: timepoint 72 hour
row,Structure (SMILES),% Inhibition
1,CC(C)c1nc(C2CN(C(=O)Nc3ccc(F)c(Cl)c3)C2)n(C)n1,4%
2,C=CCNC(=O)CN1CCN(CC(=O)N(Cc2ccccc2)[C@@H](C)C2CC2)CC1,12%
3,Cc1cnc(Cc2ccccc2)n1CCNC(=O)c1cnn(C)c1,12%
4,CS(=O)(=O)CC1(CON=C(N)c2cccnc2)CC1,8%
5,CCCn1c(C)cnc1C1CN(S(=O)(=O)c2ccc(C)c(F)c2)C1,-3%
6,CCCN(Cc1nnc(-c2ccccc2)o1)S(=O)(=O)c1cnn(C(F)F)c1C,0%
7,Cn1cc(-c2noc(-c3cccc(C#N)c3)n2)ccc1=O,8%
8,CCOC(=O)c1nc(-c2ccc(N3CCCCC3)nc2)no1,13%
9,COc1cc(N2CCn3c(nc4ccccc43)C2)ccc1NC(=O)c1ccc(C)cc1,-23%
10,Cc1cccc(C)c1OCC(=O)Nc1ccc(-c2nc3cc4ccccc4cc3[nH]2)cc1,18%
11,Cc1ccc(C)n1-c1ccc(Cl)c(C(=O)NC[C@H]2COCCO2)c1,-3%
12,CC(C)(C(=O)Nc1nccs1)c1cccnc1,10%
13,O=C(NCc1ccccc1F)C1CCN(c2cncnc2N2CCCC2)CC1,19%
14,COc1ccc2oc(-c3ccc(CNC(=O)c4ccc(C)cc4)cc3)nc2c1,13%
15,Cc1nn(C)c(C)c1-c1cc(C(=O)Nc2cc(F)ccc2F)c2c(C)nn(C)c2n1,2%
16,Cc1ccccc1-c1nc2cc(NS(=O)(=O)c3ccccc3)ccc2o1,6%
17,Fc1cccc(Br)c1C1CC(c2cccnc2)Nc2ncnn21 (stereo unspecified),-8%
18,O=S(=O)(c1ccccc1)c1cnc2c(Br)c(-c3ccccc3)nn2c1-c1ccccc1,-20%
19,COc1ccccc1-c1n[nH]cc1CN1CC(=O)NCC12CCCC2,-9%
20,CCCOc1cccc2c(NC3CCN(CCOC)CC3)ccnc12,48%
21,CCC[C@H](C)c1cc(NS(=O)(=O)c2cnn(CC)c2)[nH]n1,10%
22,CC1CC(NS(=O)(=O)CCCC(F)(F)F)CCN1 (stereo unspecified),-1%

row,Structure (SMILES),% Inhibition
1,O=C(Cn1ccsc1=O)c1cccc(Cl)c1Cl,-19%
2,Cc1ccc(CNC(=O)CCCC(=O)NCc2ccccc2)o1,-16%
3,CCN(CC)c1ccc(N2C(=O)c3c(Br)c(Br)c(Br)c(Br)c3C2=O)cc1,12%
4,CCn1cc(-c2cc(C(F)(F)F)nc(N3CCCC3)n2)cn1,10%
5,COc1ccc(-n2nc(C(=O)N3CCOCC3)c(=O)cc2OC)cc1,3%
6,CCOc1ccc(C2c3[nH]c4ccccc4c3C[C@H]3C(=O)N(C4CCN(Cc5ccccc5)CC4)CC(=O)N23)cc1OC (stereo partly specified),79%
7,CC(C)[C@H](NC(=O)C(F)(F)F)C(=O)NC1CCN(c2ccccc2Cl)C1=O (stereo partly specified),-7%
8,CCOc1ccc2ccccc2c1C(=O)Nc1cc(C)nn1-c1nc2c(c(=O)[nH]1)CCC2,91%
9,Cc1cccc(C(=O)ON2C(=O)CCC2=O)c1,-14%
10,CN1C(=O)c2ccc(S(=O)(=O)NCCn3ncnn3)cc2C1=O,4%
11,O=C1c2ccccc2[C@@H](Nc2ccc3c(c2)OCCO3)N1c1ccccn1,-8%
12,COc1ccc(-c2nc(-c3cccc(-c4nnc(N)o4)c3)sc2C)c(OC)c1,12%
13,CS(=O)(=O)N1CCC[C@H](Cn2nnnc2C=Cc2ccccc2)C1,8%
14,Cc1noc(C)c1CN1CCCN(C(=O)c2n[nH]c3ccccc23)CC1,7%
15,CCCCOc1ccc(-c2ccc(C)cc2)cc1[C@H]1Nc2ccccc2C(=O)N1c1ccccc1,10%
16,c1cc([C@@H]2CN(Cc3noc(C4CC4)n3)CCO2)cs1,7%
17,CCc1ccc(CN2CCC[C@H](c3ncc[nH]3)C2)nc1,52%
18,COc1ccccc1-n1c(=O)n(C2CCCC2)c(=O)c2c1ncn2Cc1ccccc1Cl,34%
19,O=C(CCc1nc2ccccc2c(=O)[nH]1)Nc1ccc(-n2cnnn2)cc1,6%
20,O=S1(=O)c2ccccc2N=NN1Cc1ccc(Cl)cc1,-19%
21,CN(C)c1ccc2cc(NC(=O)CCc3cnn(C)c3)ccc2c1,-5%
22,c1cnc2nc(-c3ccc4c(c3)OCO4)cn2c1,-1%

row,Structure (SMILES),% Inhibition
1,CCc1nc(C)ncc1C(=O)OCc1nccn1Cc1ccccc1,7%
2,Cc1cccc(NC(=O)CCC(=O)OCC(F)(F)C(F)F)c1C,1%
3,O=c1sc2c(n1Cc1csc(C3CCCCC3)n1)CCCC2,10%
4,Cc1cc(N2C(=O)CCS2(=O)=O)ccc1S(=O)(=O)NC1CCCC1,9%
5,CN1CCN(c2nc(O)c3c(n2)NC(=O)C[C@H]3c2c(F)cccc2Cl)CC1,-6%
6,Nc1cc(Br)c(C(F)(F)F)cc1NC(=O)C(F)(F)F,5%
7,Cc1cc(C(=O)NCc2ccco2)nn1C(F)F,7%
8,COc1ccnc(CN2CCC[C@H](c3nc(-c4ccccc4)c[nH]3)C2)c1OC,82%
9,Cc1ccc(N2C(=O)CN(CC(C)C)[C@H]3CS(=O)(=O)C[C@H]32)cc1,14%
10,Cc1cccc2[nH]cc(CCNC(=O)N3CCC4CCC(C3)N4C)c12 (stereo unspecified),11%
11,CC(C)c1ncsc1C(=O)NC(C)(C)C(=O)NCC1CCCC1,-5%
12,O=S1(=O)C[C@H](N2CCN(c3ccccc3F)CC2)[C@@H](S(=O)(=O)c2ccccc2)C1,-4%
13,CCc1nnsc1C(=O)NC1CCCCCC1,10%
14,COc1ccccc1CC(=O)N(c1nc(C)cs1)C1CC1,-8%
15,O=C(N[C@@H](CN1CCCC1)c1ccccc1)N1CCC(c2ccn[nH]2)CC1,43%
16,N#Cc1c2ccc(O)cc2n2ccccc12,-10%
17,O=C(Nc1cccnn1)N[C@@H](c1ccccc1)c1ccc2c(c1)CCCO2,-20%
18,CCc1c(C)nn(S(=O)(=O)c2ccc3ccccc3c2)c1O,-3%
19,COc1ccc2c(c1)CN(C(=O)C1CC3CCC1C3)CC2 (stereo unspecified),11%
20,c1ccc(-c2ccc(-n3nnnc3-c3ccccc3)cc2)cc1,-8%
21,COCCN(CC1CN(Cc2ccsc2)CC1c1cccc(F)c1)C(=O)C(C)C (stereo unspecified),-1%
22,Cn1c(=O)c2sc(N3CCCC3)nc2n(CC(=O)NC2CCCC2)c1=O,4%
